According to the supplement of paper PMC3334620:
Whole data set: some 33,000 sequences, median “E-score (-0.5 to 0.5)” near -0.011, cut for the highest 2% near 0.28. Some of the results follow.

These sequences were tested against T1, Gcr1 (UniProt P07261) (assay: PBM E-score (8-mer binding enrichment) (E-score (-0.5 to 0.5)); higher = stronger / more preferred TF binding; most listed sequences are background and not binding sites). Details: protein concentration: 100 nM; construct: GST-full length.
T1 sequence: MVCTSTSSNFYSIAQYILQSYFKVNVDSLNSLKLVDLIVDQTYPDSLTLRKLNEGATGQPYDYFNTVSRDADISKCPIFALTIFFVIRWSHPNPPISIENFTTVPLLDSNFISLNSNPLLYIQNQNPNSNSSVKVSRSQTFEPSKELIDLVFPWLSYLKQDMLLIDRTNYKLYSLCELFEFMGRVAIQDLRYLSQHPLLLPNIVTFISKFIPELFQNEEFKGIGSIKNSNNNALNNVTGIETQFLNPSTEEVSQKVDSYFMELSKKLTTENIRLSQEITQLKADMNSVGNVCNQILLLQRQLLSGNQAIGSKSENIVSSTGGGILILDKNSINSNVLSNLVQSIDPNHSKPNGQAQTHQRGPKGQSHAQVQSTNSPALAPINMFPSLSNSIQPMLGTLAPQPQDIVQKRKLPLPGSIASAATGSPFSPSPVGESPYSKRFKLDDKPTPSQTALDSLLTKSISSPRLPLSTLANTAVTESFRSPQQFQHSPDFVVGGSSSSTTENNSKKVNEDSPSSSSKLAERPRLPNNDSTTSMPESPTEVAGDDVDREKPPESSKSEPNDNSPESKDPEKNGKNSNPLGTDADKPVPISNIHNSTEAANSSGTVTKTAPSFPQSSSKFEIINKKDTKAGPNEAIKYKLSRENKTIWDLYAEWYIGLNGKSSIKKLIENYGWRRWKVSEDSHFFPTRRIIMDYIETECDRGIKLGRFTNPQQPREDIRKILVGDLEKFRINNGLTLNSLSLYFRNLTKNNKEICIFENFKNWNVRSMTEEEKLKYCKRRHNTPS
Summary of the method: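 The E-score, a modified Wilcoxon-Mann-Whitney statistic, was computed by the Universal PBM Analysis Suite for every ungapped eight-base word pooled with its reverse complement. Scans behind it were normalised with masliner after bound GST-tagged yeast transcription factors were detected with fluorescent anti-GST. The proteins, at about 100-200 nM, had been applied to universal all-10-mer Agilent arrays made double-stranded by primer extension.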

Sequence | PBM E-score
AGACCGAG | -0.0928
AAGTCCAG | 0.03
CCAGGGCC | -0.0915
GGAATGGA | -0.103
CGGGACGA | -0.213
ACTTAAGC | -0.132
AAAAAGAG | 0.162
CCGCGACG | -0.141
ACATGGCG | -0.158
AAGTTAAA | 0.148
ATAGGTAG | 0.267
CTTCTGAA | 0.147
ACGGGCTA | 0.0471
GCTTGCAA | -0.242
TAATCTCA | -0.0789
CACTCGAC | -0.0291
AGCCCACA | -0.0506
ACATGGAC | -0.061
ATGCACCC | -0.0509
GGACAAAA | -0.0366
CGGCATTC | -0.173
GGGGTATA | -0.187

Sequence | PBM E-score
TCATTTCA | -0.0344
CAAATGTC | -0.137
CTGAGAAC | 0.0345
ATTGGCGC | 0.107
CTGGGAAG | 0.0187
AAAGGGCC | -0.144
ATGTAAAC | -0.0452
ACTCCCGC | 0.113
ACACGCCA | -0.163
CGGATCTA | 0.0614
CTCTTACA | 0.00789
CGGAGCAA | -0.251
ATCATCAT | -0.0878
GAATAGGA | 0.1
CATCAAAA | 0.101
ACAGATAT | -0.00642
AAACTAAG | 0.12
ACGTTTCG | -0.204
AAAGGACT | -0.149
GCCCGCAA | 0.0623
GTTCGCCA | -0.16
CGTCACCA | 0.0162

Sequence | PBM E-score
AAACCTGC | 0.0948
CCCCGACC | -0.117
AATAATGC | 0.00639
CGGCAACA | 0.206
GGGTGTCA | -0.0813
TACGCCTA | 0.062
AGAGTTTG | 0.00252
AGCTGTCC | -0.103
ACTAAAAC | 0.103
TACGAAAA | 0.112
TAGAGCGA | -0.0317
CAATGATG | -0.0198
CCCGGTGA | 0.121
ACGTAACC | -0.0202
GGACATTA | 0.0667
GGATGGTA | -0.0195
AGCCCAAC | 0.0796
CGTCGCAG | 0.0557
ATCGACTC | -0.171
AGTCATCA | -0.152
AACGCATT | -0.0176
GGAGATAC | -0.0448

Sequence | PBM E-score
CGTGACAA | 0.0429
CTTCCCGA | 0.0389
ATCTTGAG | 0.0742
GGGACGAA | 0.112
CAGGGCGA | -0.176
CATCTTGA | 0.105
ACTGACCG | -0.231
ATGGCCCA | -0.203
TAAAAGTA | 0.0173
AATCAAGA | 0.042
CCCCTCCC | -0.031
GCATGCGA | -0.03
GCCGTGAC | -0.123
GGTTCTGA | 0.0841
CGTTACGA | 0.00915
ATGATTAG | -0.101
ATAGGACG | 0.114
AGCCACCT | 0.0295
GGCTACCA | 0.17
GATTTCAA | -0.039
